In publication PMC4336329 (PLoS ONE, 2015):
Hit rate of the full screen: of about 310,000 compounds, about 14,000 (4.5%) showed an effect of 50% or more. The effect is printed as a negative number. Some of the results follow.
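Also: peak tail current of the secondary pulse compared with the same well before compound.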

The molecules below were run against human ether-à-go-go-related gene (hERG) potassium channel (human, UniProt Q12809) (assay: primary screen, population patch clamp on CHO cells stably expressing hERG).
Chain of human ether-à-go-go-related gene (hERG) potassium channel (Q12809 whole entry, looked up): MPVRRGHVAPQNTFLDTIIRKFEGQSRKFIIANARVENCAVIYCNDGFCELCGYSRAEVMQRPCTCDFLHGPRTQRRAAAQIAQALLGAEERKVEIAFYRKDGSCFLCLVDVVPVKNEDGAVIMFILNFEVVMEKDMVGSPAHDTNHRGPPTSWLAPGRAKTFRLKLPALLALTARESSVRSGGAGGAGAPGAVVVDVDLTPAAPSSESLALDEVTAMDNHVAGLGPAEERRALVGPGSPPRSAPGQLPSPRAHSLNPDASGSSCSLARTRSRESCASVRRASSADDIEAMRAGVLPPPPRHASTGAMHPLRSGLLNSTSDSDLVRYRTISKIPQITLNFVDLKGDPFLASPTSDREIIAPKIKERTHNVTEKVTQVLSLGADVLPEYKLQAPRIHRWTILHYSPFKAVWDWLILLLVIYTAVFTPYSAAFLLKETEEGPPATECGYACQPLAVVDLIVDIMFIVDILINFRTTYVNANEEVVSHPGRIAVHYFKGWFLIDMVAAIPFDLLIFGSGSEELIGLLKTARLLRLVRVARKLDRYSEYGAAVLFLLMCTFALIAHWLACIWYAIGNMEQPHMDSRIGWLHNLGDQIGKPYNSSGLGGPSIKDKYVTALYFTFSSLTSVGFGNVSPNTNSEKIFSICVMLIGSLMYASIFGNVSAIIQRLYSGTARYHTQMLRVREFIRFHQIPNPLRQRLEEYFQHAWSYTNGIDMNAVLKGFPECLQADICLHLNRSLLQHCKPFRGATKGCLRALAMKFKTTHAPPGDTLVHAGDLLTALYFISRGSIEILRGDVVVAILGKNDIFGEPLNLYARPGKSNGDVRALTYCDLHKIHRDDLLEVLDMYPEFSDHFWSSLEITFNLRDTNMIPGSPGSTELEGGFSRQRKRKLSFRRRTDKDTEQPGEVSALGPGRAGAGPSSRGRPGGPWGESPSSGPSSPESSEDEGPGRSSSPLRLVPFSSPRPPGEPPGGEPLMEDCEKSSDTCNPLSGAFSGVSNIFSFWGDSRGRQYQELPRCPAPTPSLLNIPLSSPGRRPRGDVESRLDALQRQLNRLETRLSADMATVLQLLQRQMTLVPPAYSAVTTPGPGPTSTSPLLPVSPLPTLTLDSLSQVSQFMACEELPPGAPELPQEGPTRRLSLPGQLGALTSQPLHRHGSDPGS
In the case of `Cc1cccc(NC(=O)/C(C#N)=C/c2cn(CC(=O)NCc3ccco3)c3ccccc23)c1C`, the “hERG current change (%, negative = inhibition) at 10uM” value is reported as 11%.
In the case of `CCOC(=O)C1CCN(c2cc(=O)n(-c3ccccc3Cl)c(=O)[nH]2)CC1`, the “hERG current change (%, negative = inhibition) at 10uM” value is reported as 4.41%.
With `CSc1ccc(CSCC(=O)N2CCN(S(=O)(=O)c3ccc(C)cc3C)CC2)cc1` the “hERG current change (%, negative = inhibition) at 10uM” value was -20.3%.
For `CN(C)C(=O)c1ccc(-c2nnc(NCc3ccccc3)c3ccccc23)cc1`, the “hERG current change (%, negative = inhibition) at 10uM” value was -24.9%.
With `N#Cc1cn(CC(=O)NCC2CCCO2)c2ccccc12` (stereo not shown) the “hERG current change (%, negative = inhibition) at 10uM” value was -0.916%.
In the case of `CNC(=O)COC(=O)c1ccccc1NC(=O)c1ccco1`, the “hERG current change (%, negative = inhibition) at 10uM” value is reported as -52.1%.
For `N#Cc1cn(CC(=O)O)c2ccccc12`, the “hERG current change (%, negative = inhibition) at 10uM” value was 3.2%.
In the case of `c1ccc(CCNC2=NCCS2)cc1`, the “hERG current change (%, negative = inhibition) at 10uM” value is reported as 12.2%.
In the case of `CC(C)CCN1C(N(C)C)=NC[C@@H]1C`, the “hERG current change (%, negative = inhibition) at 10uM” value is reported as 14.6%.
For `CCOC(=O)C1=C(C)NC(=O)NC1C1CC=CCC1` (stereo not shown), the “hERG current change (%, negative = inhibition) at 10uM” value was 4.78%.
For `CCOc1ccc(C2C(C#N)=C(N)Oc3cc(C)n(CCN(C)C)c(=O)c32)cc1OCC` (stereo not shown), the “hERG current change (%, negative = inhibition) at 10uM” value was -40%.
In the case of `O=C(NCCN1CCOCC1)c1c(O)nc2sccn2c1=O`, the “hERG current change (%, negative = inhibition) at 10uM” value is reported as 14.2%.
With `COc1ccc(OC)c(NC(=O)c2ccc(S(=O)(=O)N3CCN(C)CC3)cc2)c1` the “hERG current change (%, negative = inhibition) at 10uM” value was -13.1%.
In the case of `CCOC(=O)C(C(=O)OCC)N(C#N)c1nc(SC)nc(N(C)C)n1`, the “hERG current change (%, negative = inhibition) at 10uM” value is reported as -26.4%.
In the case of `CC(C)CN(C(=O)COC(=O)CCc1nc2ccccc2s1)c1c(N)n(Cc2ccccc2)c(=O)[nH]c1=O`, the “hERG current change (%, negative = inhibition) at 10uM” value is reported as -0.0781%.
For `CCCCNC(=O)NC1(C(F)(F)F)Oc2ccccc2O1`, the “hERG current change (%, negative = inhibition) at 10uM” value was -0.0511%.
For `Cc1ccc(-c2csc(NC(=O)C3=NN(C4CCS(=O)(=O)C4)C(=O)CC3)n2)cc1` (stereo not shown), the “hERG current change (%, negative = inhibition) at 10uM” value was -3.9%.
For `COc1ccc(Br)c(C(=O)OCC(=O)NC2CCCCCC2)c1`, the “hERG current change (%, negative = inhibition) at 10uM” value was -16.6%.
`COc1ccc(Nc2nc(Cl)nc(Nc3ccc(OC)cc3OC)n2)c(OC)c1` was tested, and the “hERG current change (%, negative = inhibition) at 10uM” value was 8.79%.
With `CCOC(=O)N1CCN(C(=O)CCSc2ccc(Cl)cc2)CC1` the “hERG current change (%, negative = inhibition) at 10uM” value was -42.3%.
With `O=C(C1CC1)N1CCc2cc(Br)cc(S(=O)(=O)NC3CCCCC3)c21` the “hERG current change (%, negative = inhibition) at 10uM” value was 9.64%.
For `CC(=O)C1C(=O)CC(C)(O)C(C(C)=O)C1c1ccccc1` (stereo not shown), the “hERG current change (%, negative = inhibition) at 10uM” value was 17.2%.
With `COc1ccc(C2C3=C(OC(C)=O)c4ccccc4C3=Nc3c2c(=O)n(C)c(=O)n3C)cc1` (stereo not shown) the “hERG current change (%, negative = inhibition) at 10uM” value was 10.8%.
With `Cc1c(C(=O)OCC(=O)N(CCC#N)c2ccccc2)oc2c1ccc1ccccc12` the “hERG current change (%, negative = inhibition) at 10uM” value was 0.0477%.
With `CC(C)CCN1CCN(Cc2nc3c(s2)CCCC3)CC1CCO` (stereo not shown) the “hERG current change (%, negative = inhibition) at 10uM” value was -28.2%.
`N#C/C(=C\c1cccnc1)c1nc2c(s1)CCCC2` was tested, and the “hERG current change (%, negative = inhibition) at 10uM” value was -3.11%.
`COc1cc(NC(=O)c2cc(C)no2)cc(OC)c1OC` was tested, and the “hERG current change (%, negative = inhibition) at 10uM” value was 22.3%.
With `CCN1C(=O)c2ccccc2Sc2ccc(C(=O)NCCN3CCOCC3)cc21` the “hERG current change (%, negative = inhibition) at 10uM” value was -5.49%.
`CCOC(=O)c1nnn(-c2nonc2-n2cccc2)c1CCl` was tested, and the “hERG current change (%, negative = inhibition) at 10uM” value was 19.6%.
With `CCc1nnc(NC(=O)c2ccc(COc3cccc(C)c3)o2)s1` the “hERG current change (%, negative = inhibition) at 10uM” value was 27.1%.
In the case of `COCC(=O)N1CCN(c2nc3ccccc3o2)CC1`, the “hERG current change (%, negative = inhibition) at 10uM” value is reported as 19.8%.
For `Cc1ccc(C)c(NC(=O)c2sc(Cl)nc2C)c1`, the “hERG current change (%, negative = inhibition) at 10uM” value was -3.2%.
In the case of `COc1cccc(CN(C)CC(=O)Nc2ccccc2C(=O)Nc2ccccc2)c1OC`, the “hERG current change (%, negative = inhibition) at 10uM” value is reported as 6.18%.
`Cc1ccc(S(=O)(=O)NN2C(=O)c3ccccc3NC2c2ccccc2F)cc1` (stereo not shown) was tested, and the “hERG current change (%, negative = inhibition) at 10uM” value was 11.2%.
For `O=C1CC(c2ccc(F)cc2)Sc2ccccc2N1` (stereo not shown), the “hERG current change (%, negative = inhibition) at 10uM” value was -30.7%.
With `COC(=O)Cn1c(O)c(N=NC(=O)c2ccc3c(c2)OCO3)c2ccccc21` the “hERG current change (%, negative = inhibition) at 10uM” value was 18.4%.
For `O=S(=O)(c1ccccc1)N1C2CCC1CC(O)(c1cccnc1)C2` (stereo not shown), the “hERG current change (%, negative = inhibition) at 10uM” value was -3.56%.
In the case of `CCCCCCn1c(=O)c(C(=O)Nc2cccc(C)n2)c(O)c2ccccc21`, the “hERG current change (%, negative = inhibition) at 10uM” value is reported as 23.8%.
In the case of `CCOc1ccc(C(=S)N2CCOCC2)cc1OC`, the “hERG current change (%, negative = inhibition) at 10uM” value is reported as 10.4%.
`O=C(Nc1ccc2c(c1)OCO2)c1ccc([N+](=O)[O-])cc1[N+](=O)[O-]` was tested, and the “hERG current change (%, negative = inhibition) at 10uM” value was 9.76%.
For `CCn1cc(C(=O)NCC(=O)NCCCN2CCOCC2)c(=O)c2cc3c(cc21)OCO3`, the “hERG current change (%, negative = inhibition) at 10uM” value was 18.2%.
With `COc1ccccc1N1CCN(C(=O)CSc2nc3ccccc3o2)CC1` the “hERG current change (%, negative = inhibition) at 10uM” value was -1.97%.
In the case of `O=C(NCCC1=CCCCC1)C1CCC(CNc2c(N3CCCCC3)c(=O)c2=O)CC1` (stereo not shown), the “hERG current change (%, negative = inhibition) at 10uM” value is reported as 17.7%.
For `CN(C)C(=O)CN1C(=O)NC2(CCCc3ccccc32)C1=O` (stereo not shown), the “hERG current change (%, negative = inhibition) at 10uM” value was 21.9%.
For `CCOC(=O)c1c(/N=C/N(C)C)sc(C)c1C`, the “hERG current change (%, negative = inhibition) at 10uM” value was 8.82%.
`O=[N+]([O-])c1cc([N+](=O)[O-])c(Oc2cccnc2Br)cc1NN1CCCCC1` was tested, and the “hERG current change (%, negative = inhibition) at 10uM” value was 2.25%.
For `CCOC(=O)c1cnc2cc(F)c(F)cc2c1N1CCOCC1`, the “hERG current change (%, negative = inhibition) at 10uM” value was -2.45%.
With `Clc1cc(Cl)c2nc(N3CCCC3)sc2c1` the “hERG current change (%, negative = inhibition) at 10uM” value was 6.82%.
With `COCCN(Cc1nc(-c2ccc(-c3ccccc3)cc2)oc1C)C(C)C` the “hERG current change (%, negative = inhibition) at 10uM” value was -71.4%.
In the case of `CCOC(=O)c1c(C)n(O)c2ccc(Cl)cc2c1=O`, the “hERG current change (%, negative = inhibition) at 10uM” value is reported as 13.9%.
For `O=C(CC1(O)C(=O)N(CCc2ccccc2)c2ccccc21)c1ccco1` (stereo not shown), the “hERG current change (%, negative = inhibition) at 10uM” value was -12.9%.
In the case of `O=C(CNC(=S)NC(=O)c1ccc(Cl)cc1)c1ccccc1`, the “hERG current change (%, negative = inhibition) at 10uM” value is reported as 9.97%.
`Cc1ccc(CNC(=O)C(=O)NCC2OCCN2S(=O)(=O)c2ccc(Cl)cc2)cc1` (stereo not shown) was tested, and the “hERG current change (%, negative = inhibition) at 10uM” value was -2.85%.
`CCOc1ccccc1NC(=O)C1=C(C)NC(=O)NC1c1cccc(OC)c1OC` (stereo not shown) was tested, and the “hERG current change (%, negative = inhibition) at 10uM” value was 14.8%.
With `CCOC(=O)C1(CCCc2ccccc2)CCN(C(=O)C2CCCO2)CC1` (stereo not shown) the “hERG current change (%, negative = inhibition) at 10uM” value was -25.7%.
In the case of `COc1cc(C(=S)N2CCCC2)cc(Cl)c1OCC(=O)Nc1ccc(C)cc1C`, the “hERG current change (%, negative = inhibition) at 10uM” value is reported as -2.37%.
With `Cc1ccc(C2(O)CC(C)N(C)CC2C)cc1` (stereo not shown) the “hERG current change (%, negative = inhibition) at 10uM” value was 12.6%.
In the case of `CCOC(=O)CCC(=O)NNC(=O)COc1ccc(C(C)C)cc1Br`, the “hERG current change (%, negative = inhibition) at 10uM” value is reported as -34.5%.
